From publication PMC12136788
Some of the results follow.

B1: chr7:31145180:31145181:-_ENSMUSG00000036957_ENSMUST00000046351|mus_mus|FALSE|FALSE (ssRNA)
RNA: GGGAGUUCUACAGUCCGACGAUCAAGCAGUGGCAAACGUGAGAAGAGUGGGUCAGGAGGGAUGGUGGUUAGGCGGUUGGAGGUCAUGUCCAGUCGUGCCAACUUGUGCAGGCGGGAAAAGGCUCCAGCGGGCACUGAAGCCAACAACAGAGGAUUGAGCAUCA
B2: chr3:45751083:45751084:+_ENSG00000211456_ENST00000389061|hu_hu|FALSE|FALSE (ssRNA)
RNA: GGGAGUUCUACAGUCCGACGAUCCCAUACAAACCGCUGAUCUGCCCUUUCCAAGAGACUCAUUUCUUGGAAUUCAGGACUAGUGUUGGAUAGCCGCUGCAAAGUAUGGGUCAAAUCAUAUGUUGUUGAAAAGUAAAAUCCAUCCAACAGAGGAUUGAGCAUCA
B3: 107755779_107755899_448_5pUTR_ENSMUSG00000032582_ENSMUST00000035201|mouse|control|control (ssRNA)
RNA: GGGAGUUCUACAGUCCGACGAUCAAAUCUACACACCAGCAUAUUCUUCUCUAAUCACAGCAUAUUCUUCUGUAAACAUAUUUUGGGGGGCAGAGUUCUGUAACAAGGUCCUAGAUCUGCAGAAAACAGCAAGUUUUGCUAUUUCAACAGAGGAUUGAGCAUCA
B4: chr5:125516475:125516476:-_ENSMUSG00000029478_ENSMUST00000125053|mus_mus|FALSE|FALSE (ssRNA)
RNA: GGGAGUUCUACAGUCCGACGAUCGGUCAAGGCGACUUGGGCUGUCCUCACCGACGAUCCUGCUGAUGGUACCCUUGUAGAGGACGUCUGCGGGCGUGCCGUGGGUGAUAGAGCCUCUGUAGCUGGGGCCGUCUGCAGCCCGGGCAACAGAGGAUUGAGCAUCA
B5: chr2:42509997:42509998:+_ENSG00000143924_ENST00000318522|hu_mus|hu_hu_hu_mus_True|1_108 (ssRNA)
RNA: GGGAGUUCUACAGUCCGACGAUCUCGCUGAGUUCUCUCCUCAUAAUUAAACAGGACUACCACUGAGGCGAUAAAAUAAACUAUCUCCCCUGUGGGAAGCAGGUAUACAUUCGCUCUACAGUCCUUUCCUCGAUAACCAUAUGCCAACAGAGGAUUGAGCAUCA
B6: 138631756_138633124_459_3pUTR_ENSMUSG00000036968_ENSMUST00000110934|mouse|control|control (ssRNA)
RNA: GGGAGUUCUACAGUCCGACGAUCUCCACUUUCACUCCCUUCUGGACCAGGCCUUUCAGUGUUGCCAUAGUCUGACUUUGACCCUUGGCGUAUCUUAGUGAGCCCUUGCGUUCAGCAUGAACAUUGUAAUCCAGGAUCCGCUCGCAACAGAGGAUUGAGCAUCA
B7: chr4:107939044:107939045:-_ENSMUSG00000034636_ENSMUST00000043616|mus_mus|FALSE|FALSE (ssRNA)
RNA: GGGAGUUCUACAGUCCGACGAUCACUUAUGAUGUCUGUGAUAGUGAUGUCAGCAUUCACACCCGUGGCAUCAAGUUCUACUAGCUUGUGGUGGCAAAAGGCUUUCCGGAAAGCAACAGCGGAAAUCUUUGCUUUGCGAAUGCACAACAGAGGAUUGAGCAUCA
B8: chr5:132440482:132440483:+_ENSG00000170606_ENST00000304858|hu_hu|motif|central (ssRNA)
RNA: GGGAGUUCUACAGUCCGACGAUCUUAAAGCAUAAUUAGAGCUCCUGCCAUGUAAGUCAUAAUGAAAAGUCUGCUGGAUAGCGGGAGCUGUAGCUAUAGCUCAACUUUCCAAAACAAACUUAUUCUUGUAGACACAUGGUUAAACAACAGAGGAUUGAGCAUCA
B9: chr7:7679991:7679992:-_ENSG00000106399_ENST00000396682|hu_hu|hu_hu_hu_mus_False|1_68 (ssRNA)
RNA: GGGAGUUCUACAGUCCGACGAUCUGGGAUGAAUCUUUUCCAGCUUCCCCACGAAGCACACGGGCCGGUCGAUGAAUUGUGGUAACAUGCUGGCGUUGACGCGCGCUUUGGGGAGCUGCAUUAUGUCCUCCAUGAUUAUGGUCCCAACAGAGGAUUGAGCAUCA
B10: chr12:39756943:39756944:-_ENSG00000139116_ENST00000544797|hu_mus|hu_hu_hu_mus_False|1_38 (ssRNA)
RNA: GGGAGUUCUACAGUCCGACGAUCGGUUUGGCUGUUACCCCCAAGGGAAUCCUGCAAGAGUCUUGUCAGCUUAGAGUCUCUGUAAGGGACAUGGGUGGCCCUCUUGCUCUUGUCCCCCAAGGCGCUGAUUACAUUCCCAAGUGCCAACAGAGGAUUGAGCAUCA
B11: chr1:169100865:169100866:+_ENSG00000143153_ENST00000367816|hu_mus|motif|central (ssRNA)
RNA: GGGAGUUCUACAGUCCGACGAUCGUGUAAAGCAUAGAGAUUAAGUGUAGGUCCCAUACGUAUGACAGUUUGUUCAAGACGGGUAGGUUUGUGUAUCUUUUUUUAACUUAUUAAAUGGCUAGUGGGAAAGAUUUGUGCUUGUGACAACAGAGGAUUGAGCAUCA
B12: chr8:48798321:48798322:-_ENSMUSG00000038069_ENSMUST00000038738|mus_hu|FALSE|FALSE (ssRNA)
RNA: GGGAGUUCUACAGUCCGACGAUCCAGUUCAUCUCUUGUUGUAUAGGUUGGAGCAUCUGUCACUUUGAUGCCUUCAGCCAUACUAAGUAUUUUAUCCAUAACUUUUUGAGGGUAUCGGCACCCGAGGAAGACGUGGUUCGCCCACAACAGAGGAUUGAGCAUCA
B13: chr5:138658563:138658564:+_ENSG00000015479_ENST00000502499|hu_hu|FALSE|FALSE (ssRNA)
RNA: GGGAGUUCUACAGUCCGACGAUCAUCUUUUUUCACAGCUUUAUCUGAUGGUUCCUUUUUCCCAUCAGAAGCCACAUCACCUAAAUUAGCAAGAUCGGUCUCGUCUCCCACUGAACUGCCACUUUCUAGCAGUGCUGCUGCUUCCAACAGAGGAUUGAGCAUCA
B14: chr11:116197844:116197845:-_ENSMUSG00000052949_ENSMUST00000100202|mus_mus|FALSE|FALSE (ssRNA)
RNA: GGGAGUUCUACAGUCCGACGAUCAGCACACGCACGCACACACACACAUACACACACACAUACACACAGGUGUUCAGGCCCUAAAACAAAGUGUGCAGCCAGCACGCCAACACCAGAUGGACAGGACUAGUUCCCCAGUGGGAUCAACAGAGGAUUGAGCAUCA
B15: chr3:179287964:179287965:+_ENSG00000136518_ENST00000429709|hu_mus|motif|central (ssRNA)
RNA: GGGAGUUCUACAGUCCGACGAUCCUUGAGUGGUGAGAUGGCCUCCAUGUUCUCCCUGGGCACGCGGAGGGCAUUGGUGUCGGUGUAGUAGGUGGGCCCGCCCUGCUUGCCUUUGUCACCAUCAAUCUCCAUCAUUGUACUUCCCAACAGAGGAUUGAGCAUCA
B16: chr2:136513182:136513183:+_ENSG00000144224_ENST00000272638|hu_mus|FALSE|FALSE (ssRNA)
RNA: GGGAGUUCUACAGUCCGACGAUCGUCAGAGGUAGCUGGUGUCUCACAAAGCUCUGUAUUUUUGGACUCGGGAUUUUCACAUACAUCAGGUUCAAAUGAGGCAGAUGGGGUAGAUACUGAACUUUCUGACUGGUUGUCAUUUGUCAACAGAGGAUUGAGCAUCA
B17: chr8:95530139:95530140:-_ENSG00000164944_ENST00000437199|hu_mus|motif|central (ssRNA)
RNA: GGGAGUUCUACAGUCCGACGAUCGACACCGCUGGAAGACUGAGCCACCACCAGCGUGAGUACGCAUGCGUAAUUAUAAGCGGCUGACUUCUUAGACUUGGAAUCGCCUAGGGCUUCUUUGGAAUAGUACUCCAUUAGAGUAAUCAACAGAGGAUUGAGCAUCA
B18: 11988921_11994759_323_CDS_ENSMUSG00000046139_ENSMUST00000061618|mouse|control|control (ssRNA)
RNA: GGGAGUUCUACAGUCCGACGAUCUCUCUCUCCAUUGCCUGUUUGUUCAUCAGCUGCCACAGGUAGCUUCUCUUCCAACUCAGCCAGGCGCUCAUGUGCUUCCUGCCAAUCAUCAUCAACUGCACCUGACCCAAAGGUAUCAUCCAACAGAGGAUUGAGCAUCA
B19: chr22:32879901:32879902:+_ENSG00000100225_ENST00000397426|hu_mus|hu_hu_hu_mus_False|28_98 (ssRNA)
RNA: GGGAGUUCUACAGUCCGACGAUCCUCUUCCAUACUCGCAUUAUCUUGAAUUGACUCAGCUUCAACAUUUUGACUAGGCCCUUCCAUACUGUCAUCAGUCCAGGCAUCAGACUGGGCGGCCUGUCCUUGGGAUGAAUCAGUCCCCAACAGAGGAUUGAGCAUCA
B20: chr3:15292738:15292739:+_ENSG00000131375_ENST00000253693|hu_hu|FALSE|FALSE (ssRNA)
RNA: GGGAGUUCUACAGUCCGACGAUCAGCCAGUAACUUGAGAUUUCUCCAUCACUGAAGUUGUGUGAUCUUGAUGGGGAUAAUACUAUUAAAGUCCAAGAAAAAAGGUCCUUCUUGUUUAGGCAAAAAGGUACUAGGAAUGAUAUUCAACAGAGGAUUGAGCAUCA
B21: chr17:45747064:45747065:+_ENSG00000108424_ENST00000290158|hu_hu|hu_hu_hu_mus_True|98_98 (ssRNA)
RNA: GGGAGUUCUACAGUCCGACGAUCGCCCACAGUCCACGCAGCUGUAUCUCGAACAACUACACUGGGGUCUUUCAUUAGUUCUAUUAGGGUGGGCAUAGCCUGUAUGACUAAUGGUUUCAGUUGAUUAGGCUCUGGUCCUUCCAACAACAGAGGAUUGAGCAUCA
B22: chr7:135612270:135612271:-_ENSG00000105887_ENST00000393085|hu_mus|hu_hu_hu_mus_False|18_28 (ssRNA)
RNA: GGGAGUUCUACAGUCCGACGAUCGUUUUUUUCUGAGAUGUUAAAUAGUACUUCAGUGGAAAACAAAACUUAACCUUUUAUUAAUGCGUGUUGUACCAAAAGCAGACCAUGGUUUUAGCUUCCUUUAAAAAUAUUAACAUUAAGCAACAGAGGAUUGAGCAUCA

Biological target: T1, UNK ZnF1-3 (human, UniProt Q9C0B0 31-174)
T1 sequence: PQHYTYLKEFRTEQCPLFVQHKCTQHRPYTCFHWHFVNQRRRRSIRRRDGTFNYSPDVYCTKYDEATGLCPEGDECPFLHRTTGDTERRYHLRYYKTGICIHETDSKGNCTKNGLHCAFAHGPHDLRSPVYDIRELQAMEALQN
Experiment: nsRBNS (natural sequence RNA bind-n-seq); RBNS binding buffer (assumed for nsRBNS): 25 mM Tris pH 7.5, 150 mM KCl, 3 mM MgCl2, 0.01% Triton X-100, 500 ug/ml BSA, 20 U/ml SUPERase-In, 4 C; UNK is unkempt and MSI1 is Musashi-1; names of the RNAs are library labels; protein concentration not given here; high values mean tight binding

Row | Binder | binding signal
1 | B1 | 1.2 enrichment R
2 | B2 | 0.823 enrichment R
3 | B3 | 1.06 enrichment R
4 | B4 | 0.961 enrichment R
5 | B5 | 1.01 enrichment R
6 | B6 | 0.506 enrichment R
7 | B7 | 1.07 enrichment R
8 | B8 | 0.583 enrichment R
9 | B9 | 0.459 enrichment R
10 | B10 | 0.675 enrichment R
11 | B11 | 1.53 enrichment R
12 | B12 | 0.635 enrichment R
13 | B13 | 0.57 enrichment R
14 | B14 | 2.43 enrichment R
15 | B15 | 0.734 enrichment R
16 | B16 | 0.915 enrichment R
17 | B17 | 1.13 enrichment R
18 | B18 | 1.03 enrichment R
19 | B19 | 0.995 enrichment R
20 | B20 | 0.746 enrichment R
21 | B21 | 0.64 enrichment R
22 | B22 | 0.893 enrichment R
